Measurements: paper PMC12040169 (PLOS Biology, 2025)
This is one part of the list.

What follows are compounds tested on T1, C. trachomatis L2/434/Bu expressing GFP (CTL2-GFP). Details: total inclusion area; 28.5 h, 10 µM; inhibitor.
T1 construct: L2/434/Bu GFP intracellular growth in HeLa cells
Parameters: species or system HeLa; C. trachomatis total inclusion area by high-content imaging, normalised to DMSO
Summary of the method: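 Following bulk GFP and resorufin fluorescence reads, infected cells were fixed, Hoechst-stained and imaged on a high-content platform. Inclusion total area and number per well served as growth proxies; nuclei counts indicated host viability. MICs were derived as for the fluorescence assay.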
In the case of `COc1ccc(CCNC(=O)/C=C/C(=O)O)cc1OC` [CBK265373], the “% of control remaining” value is reported as 105.698.
`O=C(c1ccccc1F)N1CCC(c2nnc3n2CCCCC3)CC1` [CBK284628] was tested, and the “% of control remaining” value was 93.0653.
With `CN1CCC(N(C)Cc2coc3ccccc3c2=O)CC1` [CBK261578] the “% of control remaining” value was 83.4669.
With `O=C(O)c1cccc(N2N=C(c3ccccc3)CC2=O)c1` [CBK286966] the “% of control remaining” value was 89.6297.
In the case of `Cc1cc(CNS(=O)(=O)c2cccc3nonc23)no1` [CBK062263], the “% of control remaining” value is reported as 92.7852.
In the case of `O=C(c1cccnc1)N1CCN(S(=O)(=O)c2ccc([N+](=O)[O-])cc2)CC1` [CBK264300], the “% of control remaining” value is reported as 99.0304.
`C=CCNC(=O)Cn1c(-c2ccc(OC)cc2)cc2cccnc21` [CBK285363] was tested, and the “% of control remaining” value was 83.9769.
With `CC(C)CC(=O)NCCn1nc(-c2ccccc2F)cc1CN(C)C` [CBK282005] the “% of control remaining” value was 121.805.
For `CCCS(=O)(=O)Nc1ccc(=O)n2c1[C@@H]1C[C@@H](CN(C(=O)c3ccc(OC)cc3)C1)C2` [CBK288711], the “% of control remaining” value was 113.902.
In the case of `O=C(NCCc1ccccn1)c1ccc(Cl)cc1Cl` [CBK015946], the “% of control remaining” value is reported as 65.0125.
In the case of `CCOC(=O)c1cc(S(=O)(=O)NC2CCN(C(=O)OCC)CC2)cn1C` [CBK304665], the “% of control remaining” value is reported as 92.7498.
`O=C(O)c1cn(C2CC2)c2cc(N3CCN(C(=O)C4CCCO4)CC3)c(F)cc2c1=O` (stereo not drawn) [CBK297139] was tested, and the “% of control remaining” value was 11.0211.
In the case of `Cn1nc(-c2ccc(F)cc2)cc1[C@H]1CN2CC[C@H]1C[C@@H]2CNS(C)(=O)=O` [CBK289109], the “% of control remaining” value is reported as 99.1262.
For `CC(C)(C)c1cc(C(=O)N2CCn3cc(C(F)(F)F)nc3C2)[nH]n1` [CBK284748], the “% of control remaining” value was 92.9577.
With `CCCN(c1nc(C)c(Br)c(OC)n1)S(=O)(=O)c1ccc(C)cc1` [CBK028072] the “% of control remaining” value was 8.208.
With `OC(CN1CCC2(CC1)CC(O)c1cc(F)ccc1O2)c1ccc(-c2ccccc2)cc1` (stereo not drawn) [CBK286331] the “% of control remaining” value was 51.7201.
`COc1ccccc1N1CCN(C(=O)CN2C(=O)c3ccccc3C2=O)CC1` [CBK091501] was tested, and the “% of control remaining” value was 92.7889.
`O=C(CN1C2CCC1CC(O)(c1ccco1)C2)N1c2ccccc2CCc2ccccc21` (stereo not drawn) [CBK286168] was tested, and the “% of control remaining” value was 113.956.
With `CC(=O)NCC12CC3CC(C1)CC(C(=O)O)(C3)C2` [CBK286768] the “% of control remaining” value was 71.4532.
In the case of `CC1CCc2c(sc(NC(=O)c3cc(-c4cccnc4)nc4ccc(Cl)cc34)c2C(N)=O)C1` (stereo not drawn) [CBK267762], the “% of control remaining” value is reported as 97.4826.
For `Cc1ccc(C(=O)N2CN(C(=O)CNCC(C)C)CC2(C)C)cc1` [CBK089576C], the “% of control remaining” value was 67.2653.
